Screen size: about 310,000 compounds; about 14,000 (4.5%) showed an effect of 50% or more. The effect is printed as a negative number. This is one part of the list.
Molecular target: human ether-à-go-go-related gene (hERG) potassium channel (human, UniProt Q12809)
Assay: primary screen, population patch clamp on CHO cells stably expressing hERG
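Note: peak tail current of the secondary pulse compared with the same well before compound.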

Sequence of human ether-à-go-go-related gene (hERG) potassium channel (Q12809 whole entry, looked up): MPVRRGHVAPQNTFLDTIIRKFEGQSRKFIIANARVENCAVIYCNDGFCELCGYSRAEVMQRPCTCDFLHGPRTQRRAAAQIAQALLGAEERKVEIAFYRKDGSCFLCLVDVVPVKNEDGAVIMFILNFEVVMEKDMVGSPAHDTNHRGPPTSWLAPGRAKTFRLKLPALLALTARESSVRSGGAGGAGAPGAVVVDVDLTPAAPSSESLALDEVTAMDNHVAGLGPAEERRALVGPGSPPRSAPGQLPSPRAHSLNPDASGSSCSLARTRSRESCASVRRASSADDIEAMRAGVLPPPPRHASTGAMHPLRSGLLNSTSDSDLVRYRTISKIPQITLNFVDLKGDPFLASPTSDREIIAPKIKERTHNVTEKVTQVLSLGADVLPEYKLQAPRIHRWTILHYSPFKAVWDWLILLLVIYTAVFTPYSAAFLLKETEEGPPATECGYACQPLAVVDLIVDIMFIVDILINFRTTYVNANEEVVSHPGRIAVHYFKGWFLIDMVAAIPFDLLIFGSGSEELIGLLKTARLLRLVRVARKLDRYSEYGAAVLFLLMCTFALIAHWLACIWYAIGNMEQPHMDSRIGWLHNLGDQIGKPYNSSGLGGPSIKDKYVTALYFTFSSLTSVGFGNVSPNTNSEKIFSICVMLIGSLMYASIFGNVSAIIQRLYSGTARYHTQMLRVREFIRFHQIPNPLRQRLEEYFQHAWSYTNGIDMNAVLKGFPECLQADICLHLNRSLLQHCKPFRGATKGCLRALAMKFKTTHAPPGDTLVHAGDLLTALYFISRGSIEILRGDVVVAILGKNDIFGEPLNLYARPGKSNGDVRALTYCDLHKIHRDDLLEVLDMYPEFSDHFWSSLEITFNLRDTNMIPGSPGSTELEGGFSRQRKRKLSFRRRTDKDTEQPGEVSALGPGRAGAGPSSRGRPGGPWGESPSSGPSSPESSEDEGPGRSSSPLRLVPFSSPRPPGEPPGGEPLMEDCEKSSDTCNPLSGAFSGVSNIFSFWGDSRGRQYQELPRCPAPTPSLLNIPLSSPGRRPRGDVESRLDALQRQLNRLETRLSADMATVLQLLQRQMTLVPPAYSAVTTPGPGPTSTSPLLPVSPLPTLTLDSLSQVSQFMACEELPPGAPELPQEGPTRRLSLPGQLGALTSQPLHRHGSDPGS

| Compound | hERG current change (%, negative = inhibition) at 10uM [%] |
| --- | --- |
| O=C(NCc1ccc2c(c1)OCO2)c1ccc2c(c1)C(=O)N(CC1CCCO1)C2=O (stereo not shown) | 2.28 |
| COc1ccccc1Oc1cc(C#N)c(C#N)cc1-n1nnc2ccccc21 | 5.34 |
| Cc1ccccc1OCC(=O)NNC(=O)Nc1ccccc1 | 16.2 |
| CC(C)(C)OC(=O)NCCCCCC(=O)N/N=C/c1coc2ccccc2c1=O | -9.31 |
| Cc1ccc(-n2ncc3c(NCc4cccnc4)ncnc32)c(C)c1 | -28.3 |
| CCc1ccc(NC(=O)CS(=O)CC(=O)Nc2ccc(N3CCOCC3)cc2)cc1 (stereo not shown) | 2.37 |
| Cc1nc2scc(C)n2c(=O)c1S(=O)(=O)Nc1ccc(OC(F)(F)F)cc1 | 6.08 |
| O=C(CN1C(=O)c2ccccc2C1=O)Nc1cccc(O)c1 | 4.28 |
| Cc1cc(C(=O)NNC(=S)NC2CCCCC2)cs1 | 3.78 |
| COCc1c(C(=O)OCC(=O)NCCc2ccc(S(N)(=O)=O)cc2)oc2ccccc12 | -0.489 |
| COc1cc(C)cc(OC)c1OCC(=O)Nc1cc(C)on1 | 10.8 |
| CCN(CC)S(=O)(=O)c1ccc(Cl)c(NC(=O)COC(=O)/C=C/c2cc(OC)c(OC)c(OC)c2)c1 | -1.95 |
| O=C(CNC(=O)c1ccc(Cl)cc1Cl)OCC(=O)N1CCN(c2ccccc2)CC1 | -33 |
| COc1ccc(Cn2c(-c3ccc(C)cc3)nc3c(c(=O)c4ccccc4n3C)c2=O)cc1 | 20.3 |
| O=C(Nc1cccc(F)c1)c1ccccc1 | 8.84 |
| CC(C)Cc1ccc(CN2CCCC(NC(=O)Cn3cnnn3)C2)cc1 (stereo not shown) | -26.5 |
| CONC(=O)Nc1ccccc1[N+](=O)[O-] | 8.14 |
| c1ccn2c(c1)nc1c2nc2ccccn21 | 0.188 |
| CN(C)P(=O)(C(Cl)=C(N1CCCCC1)N1CCCCC1)N(C)C | -8.58 |
| COC(=O)c1c(-c2cc(C)ccc2C)csc1NC(=O)C1CC=CCC1C(=O)O (stereo not shown) | -5.98 |
| CCOC(=O)N1CCN(C(=O)CCNS(=O)(=O)c2ccccc2)CC1 | 8.69 |
| O=C(Cc1ccc(N2CCNC2=O)cc1)N1CCCC(Nc2cccc(F)c2)C1 (stereo not shown) | 4.88 |

| Compound | hERG current change (%, negative = inhibition) at 10uM [%] |
| --- | --- |
| COc1ccc(N(CC(=O)NCc2cccnc2)S(=O)(=O)c2c(C)nn(C)c2C)cc1 | 3.1 |
| O=C(NC(O)C(=O)c1ccccc1)c1cccs1 (stereo not shown) | 6.9 |
| CCOC(=O)CSc1nnc(CNc2nc(-c3ccccc3)cs2)n1C | -22 |
| COc1ccc([C@H]2/C=C\CN(S(=O)(=O)c3cccc4cccnc34)[C@@H](C)C(=O)N2Cc2ccc(F)cc2)cc1 | -16.2 |
| O=C(O)c1cc(S(=O)(=O)N(Cc2ccccc2)c2cccc(C(F)(F)F)c2)ccc1Cl | 9.43 |
| CC(C)C[C@@H](CO)N1CCN(Cc2ccc(Br)cc2)CCC1=O | -13.5 |
| Cc1oc(-c2ccc(Cl)cc2)nc1CS(=O)CC(=O)NC1CC1 (stereo not shown) | 8.75 |
| CN(C)C(=O)Nc1cccc(OC(=O)N(C)C)c1 | 13.2 |
| O=c1[nH]c2ccccc2cc1CN(c1ccccc1)S(=O)(=O)c1ccccc1 | 0.56 |
| CCN(c1ccccc1)S(=O)(=O)c1ccc(F)cc1 | 0.69 |
| CCN(Cc1nc2ccccc2c(=O)[nH]1)C(=O)c1cc2c(s1)CCCCC2 | 4.62 |
| CC1(C)C(C(=O)OCC(Cl)(Cl)Cl)N2C(=O)C(NC(=O)Cc3ccccc3)C2S1=O (stereo not shown) | 1.09 |
| Cc1cc([P+](=O)O)c(C)n1-c1ccc(Br)cc1 | 21.8 |
| Cl.Clc1cccc(NC2=NCCC2)c1 | 11.8 |
| COc1ccc(C(=O)N(C)C2CCCN(Cc3ccccc3F)C2)cc1C (stereo not shown) | 7.95 |
| CC1Cc2ccccc2N1C(=O)c1ccnc(C(C)(C)C)c1 (stereo not shown) | 12.1 |
| CCOC(=O)CNC(=O)c1ccc2[nH]c3c(c2c1)CCCC3 | 11.5 |
| COCCN(C(=O)c1csnn1)C(C(=O)NC1CCCC1)c1ccccc1 (stereo not shown) | 3.23 |
| C=CCSc1ncnc2c1oc1nc3c(cc12)COC(C)(C)C3 | 16.7 |
| CC(=NCCc1ccccc1)C1=C(O)COC1=O | 5.36 |
| Cc1scc(C(=O)NNC(=O)CCC(=O)O)c1C | 9.43 |
| O=C(Nc1ccc(F)cc1F)c1csc(-c2ccccc2)n1 | 18 |

| Compound | hERG current change (%, negative = inhibition) at 10uM [%] |
| --- | --- |
| CCN(CC)Cc1nc2c(c(=O)[nH]1)C1(CCCCC1)Cc1ccccc1-2 | 9.77 |
| Cc1ccc(-n2c(SCC(=O)NCCN3C(=O)CSC3=O)nnc2-c2ccccc2)cc1 | -12.4 |
| CC(C)n1ncc2c(C(=O)NCC(=O)Nc3ccccc3Br)cc(C3CC3)nc21 | -30.3 |
| COc1ccc(C2=NN(C(=O)CN3CCCCC3)C(c3ccc(C)cc3)C2)cc1 (stereo not shown) | -54.9 |
| CN(CCc1ccccn1)C(=O)CC1C(=O)NCCN1Cc1ccc(-c2ccccc2)cc1 (stereo not shown) | -21.2 |
| O=C(NNS(=O)(=O)c1ccc(F)cc1)c1ccc([N+](=O)[O-])cc1 | 2.38 |
| COc1ccc(/C=N/OCC(=O)Nn2c(C)nc3ccccc3c2=O)cc1 | -4.87 |
| Cc1nc2ccc(Cl)cc2nc(C)/c1=N\O | -1.89 |
| CC(C)C(=O)Nc1ccc(C(=O)Nc2ccc(S(=O)(=O)N3CCOCC3)cc2)cc1 | -1.28 |
| COc1ccc(C(Nc2ccccn2)c2c(NC(=O)c3ccco3)sc(C)c2C)cc1OC (stereo not shown) | -6.48 |
| NS(=O)(=O)c1ccc(CCNC(=O)CSCC(=O)Nc2ccc(Cl)cc2)cc1 | 0.167 |
| CCNS(=O)(=O)c1ccc(CCC(=O)Nc2ccc3c(c2)OCCO3)cc1 | 7.22 |
| CN(CCC#N)C(=O)COC(=O)c1ccc(Cl)c(S(N)(=O)=O)c1 | 21.8 |
| CC(=O)c1ccccc1NC(=O)COC(=O)c1c(C)nn(-c2ccccc2)c1C | 4.23 |
| COc1ccc(N2CCN(S(=O)(=O)c3cc(Br)cnc3N)CC2)cc1 | 17.2 |
| CC(=O)Nc1nnc(SCC(=O)Nc2ccc(N3CCOCC3)c(Cl)c2)s1 | 17.9 |
| CC(=O)Nc1ccc2nc(-c3cccs3)[nH]c2c1 | 12.2 |
| CCN(CC)S(=O)(=O)c1ccc2c3c(cccc13)C(=O)S2 | -18.4 |
| COc1ccc(C(=O)COC(=O)CCNS(=O)(=O)c2ccccc2)c(OC)c1 | -45.7 |
| CCCS(=O)(=O)N1CCCC(C(=O)NCCN(Cc2ccccc2)C(C)C)C1 (stereo not shown) | -25.6 |
| CCOC(=O)CSc1nc(N2CCOCC2)c2c(c1C#N)CC(C(C)C)OC2 (stereo not shown) | -48.7 |
| CCn1c(C)nc([N+](=O)[O-])c1C(=O)O | 6.92 |

| Compound | hERG current change (%, negative = inhibition) at 10uM [%] |
| --- | --- |
| C=C1C(O)C[C@H]2C(=C)CCC3[C@H](OC(=O)[C@]3(O)CO)[C@@H]12 (stereo partly shown) | 26.2 |
| Cc1nn(S(=O)(=O)c2ccc(Br)cc2)c(C)c1S(=O)(=O)N1CCOCC1 | -1.31 |
| COCc1nnc(NC(=O)c2ccc(S(=O)(=O)N(C)Cc3ccccc3)cc2)o1 | 5.53 |
| O=C(NCCCN1CCOCC1)[C@@H]1CSC2c3ccccc3C(=O)N21 (stereo partly shown) | 8.36 |
| O=C(Nc1cccc(Cl)c1N1CCOCC1)c1ccc([N+](=O)[O-])o1 | 2.67 |
| CCn1c2ccccc2c2nc3cc(OC)c(OC)cc3nc21 | 14.7 |
| CCCCN1C(=O)C(O)=C(C(C)=O)C1c1ccccc1 (stereo not shown) | 11 |
| Cc1cc(C)nc(Nc2ccc(O)cc2)n1 | -0.568 |
| O=c1cc(C2CCNCC2)[nH][nH]1 | 4.59 |
| Cc1nc2ccccc2c(=O)n1-c1ccccn1 | 16.6 |
| COc1cc(NC(=O)CN(C)S(=O)(=O)c2ccc(-c3ccc(=O)[nH]n3)s2)cc(OC)c1 | -5.53 |
| CCN(CC)C(=O)c1ccc(Nc2nnc(C)c3ccccc23)cc1 | -13.8 |
| CC(C)(C)OC(=O)NCCCC[C@@H](C(=O)N1CCN(C(=O)OC(C)(C)C)CC1)n1cc(C(CO)NC(=O)OC(C)(C)C)nn1 (stereo partly shown) | 18.8 |
| CSc1ncccc1C(=O)OCC(=O)C(C)(C)C | -8.39 |
| Cc1ccc(C(=O)N2CCNC(=O)C2CC(=O)Nc2ccccc2)cc1 (stereo not shown) | 7.21 |
| C=CCn1c(SCC(=O)Nc2nccs2)nnc1-c1cc2cccc(OC)c2o1 | -4.98 |
| CCCc1nc2nc(C)c(NS(=O)(=O)c3ccc(C(C)(C)C)cc3)c(=O)n2[nH]1 | 19.1 |
| Cc1ccc(/C=N/NC(=O)c2cc(-c3cccnc3)nc3ccccc23)cc1 | -5.06 |
| c1ccc(CN(Cc2ccccc2)c2nn[nH]n2)cc1 | 0.498 |
| O=C(CSc1ccc2nnc(CCNS(=O)(=O)c3ccccc3)n2n1)Nc1nc2ccccc2s1 | -0.993 |
| O=C(O)C1=C[C@H](c2ccc3c(c2)OCO3)C[C@H](OCc2ccc(CO)cc2)O1 | 20.6 |
| O=C1C2CC=CCC2C(=O)N1c1ccc(NCCc2cccc(F)c2)c([N+](=O)[O-])c1 (stereo not shown) | 3.22 |

From publication PMC4336329 (PLoS ONE, 2015)
